# Measurements reported in PubChem BioAssay AID2675 (National Center for Advancing Translational Sciences (NCATS), 2010).
# The campaign covered roughly 280,000 compounds. About 100 (0.036%) were called active. The shares of active, inactive and inconclusive entries below differ from those in the screen. Calls come from the whole dose curve; as a rule, active = well fitted inhibition curve with a large enough effect in the signal ratio, with a control signal flat (not every such curve was filed as active); inconclusive = small, poorly fitted or top-dose-only effect, or effect the other way, or a change in a side signal; inactive = no such curve, though single readings can be large or run the other way; the % refers to the signal ratio. A potency beside an inconclusive call is a rough fit, not a confirmed value. A note “side channel” means that the fit belongs to a control or component signal, not to the main read-out.
# Target: Muscleblind-like protein 1 (Homo sapiens) (UniProt Q9NR56)
# Assay: qHTS Assay for Inhibitors of MBNL1-poly(CUG) RNA binding
# Conditions: TR-FRET MBNL1-His/biotin-(CUG)12 binding, 665/545 ratio; activity change, negative = inhibition: at 57.5 µM (top of the series)
# Method in brief: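 Ratiometric TR-FRET (665 over 545 nm, excitation 340 nm) tracks disruption of MBNL1-His/biotin-(CUG)12 complex after 60 min at room temperature, with compounds at 92 nM to 58 uM final.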
# % is set by controls: 0 for no effect and ±100 for the full control effect; potency is the fitted concentration of half-maximal effect; tags give direction and shape of the fitted curve or compound fluorescence and quenching.
# UniProt Q9NR56, sequence (Q9NR56 whole entry, looked up): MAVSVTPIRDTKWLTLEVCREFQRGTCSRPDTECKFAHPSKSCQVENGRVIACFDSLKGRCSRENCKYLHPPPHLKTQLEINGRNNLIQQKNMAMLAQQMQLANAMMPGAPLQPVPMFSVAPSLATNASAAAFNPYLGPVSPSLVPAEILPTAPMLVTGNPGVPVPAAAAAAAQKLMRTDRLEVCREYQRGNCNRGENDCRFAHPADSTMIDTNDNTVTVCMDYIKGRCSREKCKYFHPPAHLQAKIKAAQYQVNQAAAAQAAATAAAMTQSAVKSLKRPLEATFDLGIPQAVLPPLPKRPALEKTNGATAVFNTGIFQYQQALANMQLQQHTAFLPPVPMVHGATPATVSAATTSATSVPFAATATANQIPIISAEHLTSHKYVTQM
SMILES,Potency,"activity change, negative = inhibition"
COCCN1C(=O)/C(=C/c2cc3c(cc2Br)OCO3)NC1=S,"inconclusive: 17.8 µM [quencher, side channel, partial curve]",–
CCOc1ccc(-c2nnc(NC(=O)C3CCCC3)o2)cc1,–,inactive: 1.92%
COc1cccc(CN(C)C(=O)CNC(=O)c2ccc3c(c2)OCO3)c1OC,–,inactive: -9.95%
C=CCN1C(=O)/C(=C/c2ccc(OC(C)=O)c(OCC)c2[N+](=O)[O-])SC1=S,"inconclusive: 28.2 µM [quencher, single point]",–
COc1ccc(-c2cc(C(=O)Nc3c(C)n(C)n(-c4ccccc4)c3=O)c3ccccc3n2)c(OC)c1,–,inactive: 17.1%
O=C(Nc1ccc(C(F)(F)F)cc1)C1CCN(c2cnccn2)CC1,–,inactive: -4.54%
CC(=O)N1CCc2cc(S(=O)(=O)CCC(=O)Nc3ccc(Cl)cc3F)ccc21,–,inactive: -5.91%
CC(C)c1ccc(NC(=O)CCS(=O)(=O)c2cccc3nonc23)cc1,"inconclusive: 7.94 µM [quencher, side channel, partial curve]",–
COc1ccc(S(=O)(=O)N2CCOCC2)cc1N=Nc1sc(N)nc1-c1ccccc1,"inconclusive: 5.62 µM [quencher, partial curve]",–
COc1cc(NC(=O)c2cc([N+](=O)[O-])ccc2NC(=O)CNCc2ccccn2)cc(OC)c1,"inconclusive: 14.1 µM [quencher, partial curve]",–
COc1ccc([N+](=O)[O-])cc1NC(=O)c1cccnc1,"inconclusive: 17.8 µM [quencher, side channel, partial curve]",–
FC(F)C(F)(F)C1=CC(c2cccs2)=NCCN1,"inconclusive: 35.5 µM [quencher, side channel, single point]",–
CCCCNC(=O)/C(C#N)=C/c1ccc(-c2ccc(S(=O)(=O)N3CCOCC3)cc2)o1,"inconclusive: 1.58 µM [quencher, side channel, full curve, poor fit]",–
O=C(CN(c1cccc([N+](=O)[O-])c1)S(=O)(=O)c1ccccc1)N1CCCCC1,"inconclusive: 31.6 µM [quencher, side channel, single point]",–
CCOc1ccc(Nc2nc(NCC(=O)O)nc(N)c2[N+](=O)[O-])cc1,"inconclusive: 14.1 µM [quencher, side channel, partial curve]",–
CCN(CC)C(=O)CSc1nnc(-c2ccccc2)c(-c2ccccc2)n1,"inconclusive: 15.8 µM [quencher, side channel, partial curve]",–
O=C(NCCc1ccc(F)cc1)c1coc(=O)c(Br)c1,"inconclusive: 15.8 µM [quencher, side channel, partial curve]",–
N/C(=N\O)c1ccc([N+](=O)[O-])s1,"inconclusive: 14.1 µM [quencher, side channel, partial curve]",–
O[C@@H]1COC(Nc2ccc(N=Nc3ccccc3)cc2)C[C@@H]1O (stereo partly drawn),"inconclusive: 17.8 µM [quencher, side channel, partial curve]",–
CC1=NC(=O)C(N=Nc2cccc(O)c2)N1c1ccccc1 (stereo not drawn),"inconclusive: 25.1 µM [quencher, side channel, single point]",–
Cn1c(-[n+]2c(-c3ccccc3)cc(-c3ccccc3)cc2-c2ccccc2)nc2c([N+](=O)[O-])cccc21,"inconclusive: 12.6 µM [quencher, side channel, partial curve]",–

SMILES,Potency,"activity change, negative = inhibition"
CC(=O)c1ccc(Cc2ncc(C(F)(F)F)cc2Cl)s1,"inconclusive: 0.355 µM [quencher, side channel, full curve, poor fit]",–
COc1ccc([C@@H](C)NC(=O)CCc2nnc(-c3cc(C)on3)o2)cc1,"inconclusive: 0.891 µM [fluorescent, side channel, single point]",–
Cc1cccc(SCC(=O)Nc2ccccc2[N+](=O)[O-])c1,"inconclusive: 20 µM [quencher, side channel, partial curve]",–
O=C(Cc1ccccc1)Nc1cccc(N2C(=O)C=CC2=O)c1,–,inactive: -11.7%
O=C(Oc1cccc2cccnc12)c1ccc2c(c1)OCCO2,–,inactive: -12.2%
CC(NC(=O)c1cn(C)c2ccc(S(=O)(=O)N3CCCC3)cc2c1=O)c1ccccc1 (stereo not drawn),–,inactive: -3.53%
NNC(=O)c1cc2c(ccc3ccccc32)o1,–,inactive: 8.49%
Cc1cccc(Cc2nnc(CCC(=O)NCc3cn4ccccc4n3)o2)c1,"inconclusive: 7.94 µM [inhibitor, single point]",–
CCOC(=O)N1CCN(C(=O)CN(Cc2ccc(Cl)cc2)S(C)(=O)=O)CC1,–,inactive: -1.22%
Nn1c(SCc2c(F)cccc2F)nnc1-c1ccccn1,–,inactive: 8.54%
CCN(CC)C(=O)C1CCCN(c2ccc([N+](=O)[O-])cc2/C=N/NC(=O)c2cccc(O)c2)C1 (stereo not drawn),"inconclusive: 7.94 µM [quencher, partial curve]",–
CCCCNc1cc(NC(C)=O)cc2cc(OC)c(OC)cc12,"inconclusive: 20 µM [quencher, side channel, partial curve]",–
CCOC(=O)/C(C#N)=C1/C=CN(c2ccccc2)C=N1,"inconclusive: 15.8 µM [quencher, partial curve]",–
CCCNC(=O)Cn1nc([N+](=O)[O-])c([N+](=O)[O-])c1C,"inconclusive: 15.8 µM [quencher, side channel, partial curve]",–
Cn1cccc1C(=O)OCC(=O)c1cc2ccccc2o1,"inconclusive: 17.8 µM [quencher, side channel, partial curve]",–
Cn1cccc1-c1cc(C(=O)N/N=C/C=C/c2ccccc2)[nH]n1,"inconclusive: 20 µM [quencher, side channel, partial curve]",–
COc1ccc2oc(=O)c(-c3nnc(N)s3)cc2c1,"inconclusive: 15.8 µM [quencher, side channel, partial curve]",–
CC1(c2ccccc2)NC(=O)N(Cc2ccc([N+](=O)[O-])cc2)C1=O (stereo not drawn),"inconclusive: 28.2 µM [quencher, side channel, partial curve]",–
CCN(CCCNC(=O)c1cc2c(-c3cccc(OC)c3)nn(C)c2s1)Cc1ccccc1,–,inactive: -16.8%
CCOC(=O)c1sc2ncn(CC(=O)NCC3CCCO3)c(=O)c2c1C (stereo not drawn),–,inactive: -6.62%
O=C(NCc1cccnc1)Nc1cccc(C(F)(F)F)c1,–,inactive: -10.1%

SMILES,Potency,"activity change, negative = inhibition"
Cc1ccc(C(C(=O)NCc2ccccc2)N(Cc2cccs2)C(=O)c2ccc3c(c2)OCCO3)cc1 (stereo not drawn),"inconclusive: 0.112 µM [fluorescent, side channel, full curve]",–
COc1ccc(CN2CCN(Cc3ccc(CO)o3)CC2CCO)cc1C (stereo not drawn),–,inactive: -1.58%
c1csc(C2C3=C(Nc4ncnn42)c2ccccc2OC3)c1 (stereo not drawn),"inconclusive: 20 µM [quencher, side channel, partial curve]",–
Cc1ccc(NC(=O)CN2C(=O)N/C(=C/c3cc(C)n(-c4ccc(C(=O)O)cc4)c3C)C2=O)cc1,"inconclusive: 14.1 µM [quencher, side channel, partial curve]",–
CN(CC(=O)NCc1ccc(F)cc1)S(=O)(=O)c1cccc2nsnc12,"inconclusive: 17.8 µM [quencher, side channel, partial curve]",–
CCSc1nc(-c2ccccc2)c2cc(Cl)ccc2n1,"inconclusive: 3.16 µM [fluorescent, side channel, partial curve]",–
Cc1ccc(C2CC(=O)N3CN(Cc4ccco4)CSC3=C2C#N)cc1 (stereo not drawn),–,inactive: 17.5%
O=[N+]([O-])c1cc(C(F)(F)F)c(Cl)cc1N1CCN(CCO)CC1,"inconclusive: 39.8 µM [quencher, side channel, single point]",–
O=C(Nc1ccc(-c2ccc3nncn3n2)cc1)C1CCCCC1,"inconclusive: 12.6 µM [quencher, side channel, partial curve]",–
N#Cc1cc([N+](=O)[O-])ccc1N1CCN(c2ccccc2O)CC1,"inconclusive: 20 µM [quencher, side channel, partial curve]",–
O=C(C1CCC1)N(CCc1ccccc1)Cc1nc2ccccc2c(=O)[nH]1,–,inactive: -2.87%
CCCOC(=O)C1=C(C)N(C)C(=O)NC1c1cc2c(cc1[N+](=O)[O-])OCO2 (stereo not drawn),"inconclusive: 3.16 µM [quencher, side channel, full curve, poor fit]",–
COc1ccc(N2CCN(C(c3cc(OC)ccc3OC)c3nnnn3CC3CCCO3)CC2)cc1 (stereo not drawn),"inconclusive: 8.91 µM [quencher, side channel, single point]",–
O=C(/C=C/c1cccc([N+](=O)[O-])c1)Nc1cccc(NC(=O)c2cccs2)c1,"inconclusive: 31.6 µM [quencher, side channel, partial curve]",–
O=C(CN1C(=O)S/C(=C/c2ccccn2)C1=O)N1CCOCC1,"inconclusive: 15.8 µM [quencher, side channel, partial curve]",–
COc1ccc(C(=O)NC(=S)Nc2ccc(CN3CCOCC3)cc2)cc1Br,–,inactive: 1.2%
O=C(Nc1ccc(S(=O)(=O)Nc2nccs2)cc1)c1nn(-c2ccccc2)ccc1=O,"inconclusive: 17.8 µM [quencher, side channel, partial curve]",–
CCOC(=O)C(C(=O)OCC)C(Nc1cccc(Br)c1)c1ccccc1 (stereo not drawn),–,inactive: -4.73%
CCN(CC)c1ccc(/C=N/NC(=O)CNC(=O)/C=C/c2ccco2)cc1,"inconclusive: 20 µM [quencher, side channel, partial curve]",–
Cc1ccc(C2C(C#N)=C(N)Oc3n[nH]c(-c4cccs4)c32)cc1 (stereo not drawn),–,inactive: -13.1%
COc1ccc2cc3cc(C(=O)N4CCN(C5CCCCC5)CC4)oc3nc2c1,"inconclusive: 5.01 µM [quencher, side channel, full curve, poor fit]",–
